# The other results are listed elsewhere or left out. Values were computed here from the reads of four pooled replicates and scatter widely.
# Target: T1, Pho4 (S. cerevisiae) (UniProt P07270)
# T1 sequence: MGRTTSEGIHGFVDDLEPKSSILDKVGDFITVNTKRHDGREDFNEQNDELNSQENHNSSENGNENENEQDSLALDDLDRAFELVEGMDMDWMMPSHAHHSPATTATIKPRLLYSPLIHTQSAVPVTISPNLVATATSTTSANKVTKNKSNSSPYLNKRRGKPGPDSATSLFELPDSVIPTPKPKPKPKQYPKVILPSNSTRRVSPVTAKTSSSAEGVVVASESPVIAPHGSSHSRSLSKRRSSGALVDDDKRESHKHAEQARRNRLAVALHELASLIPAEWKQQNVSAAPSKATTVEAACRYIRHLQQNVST
# Assay: relative binding free energy (BET-seq); higher = weaker binding
# Settings: reference: library average
row,Sequence,relative binding free energy
1,GAATACACGTGTGATT,0.26 kcal/mol
2,GCGTGCACGTGCTAGT,0.1 kcal/mol
3,GCGTTCACGTGAGGGT,0.45 kcal/mol
4,TGGGGCACGTGGGCTA,-0.14 kcal/mol
5,TAATACACGTGTTTAG,0 kcal/mol
6,GATTGCACGTGGCGGT,-0.09 kcal/mol
7,ATTTTCACGTGGAAGT,0.26 kcal/mol
8,TGCTACACGTGGGAGG,0.04 kcal/mol
9,GTTTACACGTGTTTCT,0.25 kcal/mol
10,CGTTGCACGTGGGTAG,-0.18 kcal/mol
11,GGGGGCACGTGGACAG,-0.16 kcal/mol
12,GTATGCACGTGAATGT,0.22 kcal/mol
13,TTAGTCACGTGATAGG,0.15 kcal/mol
14,AAATGCACGTGTGCTT,0.05 kcal/mol
15,GGAAACACGTGGGGCT,-0.22 kcal/mol
16,GGGCGCACGTGTGTAA,0.11 kcal/mol
17,GTAAGCACGTGAGTGA,0.14 kcal/mol
18,TGGTGCACGTGCTGCT,-0.26 kcal/mol
19,AATGGCACGTGTCGAG,-0.04 kcal/mol
20,ATAGGCACGTGAATTT,0.16 kcal/mol
21,TTTAACACGTGGCGGC,-0.01 kcal/mol
22,TGTTTCACGTGTCTGG,0.23 kcal/mol
23,TGTGCCACGTGAGGTC,0.12 kcal/mol
24,GCGTTCACGTGGCTGG,0.23 kcal/mol
25,GTAGTCACGTGGATGT,0.2 kcal/mol
26,CAGGGCACGTGGGTGA,-0.39 kcal/mol

row,Sequence,relative binding free energy
1,TGTAGCACGTGAAGTG,0.2 kcal/mol
2,TAACGCACGTGGTGTT,-0.29 kcal/mol
3,GTTAGCACGTGAGCGG,0.25 kcal/mol
4,TCTAGCACGTGGATTG,0.06 kcal/mol
5,TGCGTCACGTGGAGGC,0.03 kcal/mol
6,ATATACACGTGGTGGT,-0.03 kcal/mol
7,ATTTTCACGTGTGACA,0.21 kcal/mol
8,ATTCGCACGTGCGTGT,-0.09 kcal/mol
9,TTTATCACGTGTTGTC,0.15 kcal/mol
10,TCAGTCACGTGTGGGA,0 kcal/mol
11,GTGCGCACGTGTGGTG,0.05 kcal/mol
12,GTGGACACGTGTCTGG,-0.07 kcal/mol
13,TGTAACACGTGAGGCA,0.4 kcal/mol
14,GGTGTCACGTGTTTTT,0.34 kcal/mol
15,CTTTTCACGTGTTAAG,0.18 kcal/mol
16,ACGGTCACGTGTTTAT,0.07 kcal/mol
17,TTGTTCACGTGATGGC,0.31 kcal/mol
18,GTCATCACGTGGGCGG,0.13 kcal/mol
19,GTAGGCACGTGTGGTC,0.06 kcal/mol
20,TGGTTCACGTGTACGC,0.35 kcal/mol
21,GTTCCCACGTGGGTGG,-0.26 kcal/mol
22,GTAAGCACGTGGGTAC,-0.05 kcal/mol
23,ATTATCACGTGTAATG,0.3 kcal/mol
24,ATGTACACGTGTACGT,0.11 kcal/mol
25,GCCAGCACGTGGTGGG,-0.25 kcal/mol
26,TAGTTCACGTGATGGG,0.4 kcal/mol

row,Sequence,relative binding free energy
1,TGCTTCACGTGATGTA,0.22 kcal/mol
2,AAATTCACGTGGTGAG,0.26 kcal/mol
3,ATCATCACGTGAGGGT,0.25 kcal/mol
4,TCATTCACGTGTGGGG,0.46 kcal/mol
5,GGATGCACGTGAGCTG,0.16 kcal/mol
6,GGTATCACGTGCGAGA,0.39 kcal/mol
7,TTAATCACGTGTTTGG,0.14 kcal/mol
8,TTTGTCACGTGGACGG,0.14 kcal/mol
9,TTCGGCACGTGGTGAA,-0.02 kcal/mol
10,CGGCTCACGTGAAGGT,0.3 kcal/mol
11,TGTCTCACGTGACGTG,0.17 kcal/mol
12,ATATGCACGTGCTCGT,0.02 kcal/mol
13,GAGAGCACGTGTATGG,-0.08 kcal/mol
14,AGGTGCACGTGCGTGC,-0.24 kcal/mol
15,GGTTTCACGTGGCGTA,0.18 kcal/mol
16,ATGCACACGTGTGTTG,0 kcal/mol
17,ATCGTCACGTGGGTAA,-0.11 kcal/mol
18,GTTCGCACGTGAGTAT,0.15 kcal/mol
19,AGTTGCACGTGTTTGT,-0.06 kcal/mol
20,TGTTGCACGTGGCTCA,-0.01 kcal/mol
21,GGGTGCACGTGGTCTG,-0.04 kcal/mol
22,AGGAGCACGTGTAGAG,-0.04 kcal/mol
23,TGGGGCACGTGGAATT,0.02 kcal/mol
24,TATGGCACGTGATTGG,0.02 kcal/mol
25,GTCGGCACGTGAGTTT,0.23 kcal/mol
26,ATGAGCACGTGTTATC,0.09 kcal/mol

row,Sequence,relative binding free energy
1,GTTAGCACGTGCTTGG,-0.09 kcal/mol
2,GCAAGCACGTGTGGTT,-0.05 kcal/mol
3,TTTCTCACGTGGATTG,0.25 kcal/mol
4,GGTGACACGTGTAATT,0.24 kcal/mol
5,ATTGGCACGTGCAGGA,-0.16 kcal/mol
6,CGTGGCACGTGTGCTG,-0.19 kcal/mol
7,CATGGCACGTGAAGGG,0.22 kcal/mol
8,TGTTTCACGTGCTATG,0.29 kcal/mol
9,TTTCCCACGTGGGGTT,-0.2 kcal/mol
10,CGTGTCACGTGTTCGG,0.11 kcal/mol
11,GACAACACGTGTGGTG,0.14 kcal/mol
12,AAATACACGTGTTATG,0.13 kcal/mol
13,TGGGTCACGTGCTTCG,0.21 kcal/mol
14,TTATGCACGTGGGTGA,-0.18 kcal/mol
15,AGGTACACGTGGGGGG,-0.08 kcal/mol
16,TAATACACGTGGGGGT,-0.05 kcal/mol
17,TGGTCCACGTGGGTGG,-0.11 kcal/mol
18,GAATTCACGTGTGTGT,0.38 kcal/mol
19,TTCGTCACGTGGTGTA,0.09 kcal/mol
20,TGGGTCACGTGTAGCA,0.14 kcal/mol
21,GTGGACACGTGGGAAT,0.08 kcal/mol
22,GTTATCACGTGTGCTT,0.15 kcal/mol
23,TATGACACGTGTGGCA,0.11 kcal/mol
24,AGTTCCACGTGTGAGT,0.01 kcal/mol
25,TGGTGCACGTGCAATT,0.05 kcal/mol
26,TCGGTCACGTGGGTAC,-0.02 kcal/mol

row,Sequence,relative binding free energy
1,AAAGGCACGTGAATTG,0.24 kcal/mol
2,ATTGTCACGTGTGTTT,0.08 kcal/mol
3,CAGTCCACGTGGTGTG,-0.16 kcal/mol
4,TTACTCACGTGAGTGT,0.19 kcal/mol
5,GGAGTCACGTGCGGGA,0.09 kcal/mol
6,GGTTGCACGTGCAGAG,0.02 kcal/mol
7,TGGTGCACGTGATTTT,0.13 kcal/mol
8,TGCGGCACGTGTGGGA,0.04 kcal/mol
9,TGGAGCACGTGTTTCA,-0.13 kcal/mol
10,TGGTTCACGTGAGGTC,0.45 kcal/mol
11,GTAGTCACGTGCAAGT,0.17 kcal/mol
12,CGTTACACGTGTCGGT,0.23 kcal/mol
13,GGTGGCACGTGGAGCA,-0.2 kcal/mol
14,GACCGCACGTGTTGGG,0.09 kcal/mol
15,CTGTGCACGTGTGCGT,-0.01 kcal/mol
16,GTCTGCACGTGTAAGG,0.21 kcal/mol
17,AATATCACGTGTGGAA,0.15 kcal/mol
18,GGCCGCACGTGGTGGG,-0.07 kcal/mol
19,GATTCCACGTGGTATG,0.1 kcal/mol
20,CTTAACACGTGGTTTT,0.04 kcal/mol
21,TGTGCCACGTGTCTGT,-0.16 kcal/mol
22,GGAGTCACGTGCGGCG,0.04 kcal/mol
23,ATCAGCACGTGGTATG,-0.17 kcal/mol
24,ATTATCACGTGTGTTA,0.15 kcal/mol
25,CGAGGCACGTGCGGTT,0 kcal/mol
26,GTGGTCACGTGGTACA,-0.04 kcal/mol

row,Sequence,relative binding free energy
1,TTTCGCACGTGTCGGG,0.03 kcal/mol
2,AAGTGCACGTGGAAAT,0.12 kcal/mol
3,GGGTACACGTGCAGAG,0.1 kcal/mol
4,GCGAGCACGTGGTATG,-0.24 kcal/mol
5,GGATTCACGTGATGCA,0.43 kcal/mol
6,CTTTTCACGTGGGCGT,0.06 kcal/mol
7,TGTCGCACGTGAAGAG,0.2 kcal/mol
8,GATTACACGTGTGGTG,0.18 kcal/mol
9,TGTCACACGTGTGTGA,0.01 kcal/mol
10,TTGATCACGTGAGAGG,0.43 kcal/mol
11,GTGTGCACGTGTCGTA,0.03 kcal/mol
12,CGTGTCACGTGGGGCG,0.01 kcal/mol
13,CATTCCACGTGTGGGT,0.1 kcal/mol
14,GTGCACACGTGGAGTG,0.15 kcal/mol
15,TGCAACACGTGAGCGG,0.48 kcal/mol
16,TAGGGCACGTGATGGA,0.11 kcal/mol
17,GGAAACACGTGTGGGG,0.04 kcal/mol
18,AGAGTCACGTGTAACG,0.39 kcal/mol
19,AGGATCACGTGTTCTT,0.23 kcal/mol
20,GTCCGCACGTGTGTTG,0 kcal/mol
21,TCATTCACGTGCTGGG,0.23 kcal/mol
22,TTGTGCACGTGCATTA,-0.15 kcal/mol
23,AGTTGCACGTGTGGCG,0.13 kcal/mol
24,CAAGTCACGTGGAGGA,0.19 kcal/mol
25,TGCAACACGTGTGGTG,-0.09 kcal/mol
26,GGTCGCACGTGCGGAA,0.2 kcal/mol

row,Sequence,relative binding free energy
1,TATAACACGTGGTTTA,-0.09 kcal/mol
2,TTCTACACGTGAGTTT,0.34 kcal/mol
3,GGGTACACGTGTTTTC,0.29 kcal/mol
4,GGGAGCACGTGAGTCT,0.12 kcal/mol
5,ATGTTCACGTGTGGAC,0.28 kcal/mol
6,ATTAGCACGTGCTTGA,-0.11 kcal/mol
7,ATGCGCACGTGCTGTT,-0.06 kcal/mol
8,GTGAACACGTGTTTTT,0.15 kcal/mol
9,GGTTGCACGTGGATTA,0.09 kcal/mol
10,GGTATCACGTGAAGTT,0.49 kcal/mol
11,GAAGTCACGTGCTGGT,0.06 kcal/mol
12,CTGTTCACGTGTTTTA,0.18 kcal/mol
13,GTTTCCACGTGTAGGA,0.17 kcal/mol
14,TTGTACACGTGGTCTT,0.01 kcal/mol
15,CAGGGCACGTGTGTAG,-0.12 kcal/mol
16,TTAGGCACGTGGTGGG,-0.15 kcal/mol
17,GGTGCCACGTGGATGA,-0.08 kcal/mol
18,ATGAGCACGTGTAAAA,0.13 kcal/mol
19,AAATTCACGTGGAGTG,0.41 kcal/mol
20,TTAGGCACGTGTAAGG,0.04 kcal/mol
21,TGGGGCACGTGGTCCT,-0.18 kcal/mol
22,TGAGACACGTGGTAGG,-0.11 kcal/mol
23,TTGGTCACGTGTTTAT,0.13 kcal/mol
24,TGATCCACGTGGTTTG,-0.05 kcal/mol
25,GTAACCACGTGGAGGT,0.01 kcal/mol
26,ATAGGCACGTGAAGGC,0.07 kcal/mol

row,Sequence,relative binding free energy
1,AATCTCACGTGGAGTG,0.3 kcal/mol
2,GGCGTCACGTGCTAGT,0.12 kcal/mol
3,TGTAACACGTGACGTT,0.19 kcal/mol
4,AATCTCACGTGAGGTG,0.32 kcal/mol
5,GGTTTCACGTGTTGAG,0.15 kcal/mol
6,TGGATCACGTGGGTCG,0.03 kcal/mol
7,GTGCACACGTGGTTTG,0.02 kcal/mol
8,TAGAGCACGTGTTAAT,-0.12 kcal/mol
9,GTTTACACGTGTATCG,0.2 kcal/mol
10,GAGATCACGTGTGTTG,0.28 kcal/mol
11,GGCTGCACGTGTGTTG,0.03 kcal/mol
12,AGTGGCACGTGGTTCA,-0.15 kcal/mol
13,CAGGTCACGTGTGGGG,0.05 kcal/mol
14,TGTCTCACGTGATTTG,0.22 kcal/mol
15,GAAAGCACGTGGGGTT,-0.15 kcal/mol
16,GGTTTCACGTGCGGTA,0.23 kcal/mol
17,TGCATCACGTGGTTCT,0.18 kcal/mol
18,GGGAGCACGTGTCCGG,-0.19 kcal/mol
19,CGGATCACGTGTTGGA,0.12 kcal/mol
20,TTTTTCACGTGTTTCG,0.43 kcal/mol
21,TATTTCACGTGTGGTA,0.33 kcal/mol
22,AGTTGCACGTGGATCG,0.1 kcal/mol
23,AGGTGCACGTGAGTGT,0.19 kcal/mol
24,GGCGGCACGTGGTTGA,-0.11 kcal/mol
25,ATTGACACGTGCGGTT,-0.06 kcal/mol
26,AGGTTCACGTGTAGCA,0.31 kcal/mol

row,Sequence,relative binding free energy
1,TGTTACACGTGGAATT,0.16 kcal/mol
2,AGTGGCACGTGTGGCT,-0.12 kcal/mol
3,GCAGTCACGTGTCGTT,0.31 kcal/mol
4,GTTAGCACGTGCAGTG,0.01 kcal/mol
5,TATGACACGTGAGGTG,0.03 kcal/mol
6,TTTGGCACGTGAATCG,0.17 kcal/mol
7,AAGGCCACGTGGGGTT,-0.21 kcal/mol
8,CCTTTCACGTGAGGTT,0.25 kcal/mol
9,ATGGTCACGTGTACGG,0.18 kcal/mol
10,GCGGCCACGTGTGGTG,-0.02 kcal/mol
11,ATTGGCACGTGCGGCT,-0.25 kcal/mol
12,TTTTGCACGTGTTCAG,0.05 kcal/mol
13,AGTGGCACGTGTATTC,-0.01 kcal/mol
14,GAAGGCACGTGTAGTG,0.05 kcal/mol
15,AACGACACGTGTGGTT,0.22 kcal/mol
16,AAGTACACGTGGGGAG,-0.12 kcal/mol
17,TAATGCACGTGCGCGG,-0.22 kcal/mol
18,CTATGCACGTGGGTTA,-0.22 kcal/mol
19,CGTTCCACGTGTTGTT,0.11 kcal/mol
20,ATGTGCACGTGGCATA,-0.17 kcal/mol
21,GAAGGCACGTGGAGTA,-0.09 kcal/mol
22,TTAAGCACGTGGTTGC,-0.24 kcal/mol

# Reference: the BET-seq Pho4 binding data (Le et al. 2018)
